# Experimental data published in the supplement of paper PMC3334620.
# In all, about 33,000 sequences were measured (“E-score (-0.5 to 0.5)”: median about -0.016, highest 2% from about 0.32 on). The list shows a part of the results.
# Target: T1, Stp1 (UniProt B3LFK1)
# T1 sequence: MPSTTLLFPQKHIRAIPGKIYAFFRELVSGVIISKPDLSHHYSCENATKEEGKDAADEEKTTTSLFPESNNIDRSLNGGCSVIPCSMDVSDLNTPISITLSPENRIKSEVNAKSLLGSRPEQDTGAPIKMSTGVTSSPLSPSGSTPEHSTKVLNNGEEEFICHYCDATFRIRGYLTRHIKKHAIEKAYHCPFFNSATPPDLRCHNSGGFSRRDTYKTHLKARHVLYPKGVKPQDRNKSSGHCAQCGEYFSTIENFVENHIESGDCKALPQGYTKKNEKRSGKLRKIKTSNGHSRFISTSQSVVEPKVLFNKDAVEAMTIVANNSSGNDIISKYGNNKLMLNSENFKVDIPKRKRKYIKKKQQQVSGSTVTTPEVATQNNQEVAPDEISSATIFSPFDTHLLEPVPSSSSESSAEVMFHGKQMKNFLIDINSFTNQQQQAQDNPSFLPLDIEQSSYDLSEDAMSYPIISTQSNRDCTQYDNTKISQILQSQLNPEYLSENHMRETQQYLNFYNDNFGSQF
# Experiment: PBM E-score (8-mer binding enrichment) (E-score (-0.5 to 0.5)); higher = stronger / more preferred TF binding; most listed sequences are background and not binding sites
# Details: protein concentration: 200 nM; construct: GST-full length
# How it was run: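 Each ungapped eight-base word and its reverse complement, pooled, received an E-score from the Universal PBM Analysis Suite. Underlying scans, normalised with masliner, recorded fluorescent anti-GST bound to GST-tagged yeast transcription factors. These were applied at about 100-200 nM to universal all-10-mer Agilent arrays double-stranded by primer extension.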
row,Sequence,PBM E-score
1,ACTATCAT,0.226
2,ATGGAGTG,-0.176
3,AAACGGCT,0.376
4,AAGTGAAG,-0.135
5,CGCCAGGC,-0.0916
6,AGTACTCG,-0.0558
7,ACTCCGCT,-0.139
8,CTTTTCCA,-0.0803
9,CTCAGGCC,-0.336
10,CGTGCCTA,0.184
11,ACCGCAAC,-0.0924
12,CGTATATC,0.101
13,ATCCCCCC,-0.44
14,TCAATCAA,0.0678
15,AGTTCACA,-0.141
16,AGGTTAGA,-0.172
17,ACCCCATA,0.0155
18,CCTTGAAG,-0.105
19,AGAAGGAT,-0.358
20,CACATCAA,0.0988
21,TACGTGCA,0.14
22,AGCTCTAG,-0.108
23,GAATCAAC,0.123
24,CATGGGTC,-0.296
25,GGGTCGTA,-0.115

row,Sequence,PBM E-score
1,GACACGAA,-0.111
2,GCGTTATA,0.0294
3,GACTCCCA,-0.278
4,GCCATTAA,0.139
5,GCATGCAC,0.0122
6,CCGAATCA,0.0344
7,ACAGTCCC,-0.22
8,TAGGGGAA,-0.171
9,GGCTTTAA,0.106
10,CTGCGTCC,-0.158
11,CAATCGGG,-0.13
12,ATACTAAA,0.187
13,AGCCAAAC,0.00731
14,CGAATCTC,-0.207
15,CGCGTCAA,0.077
16,ATCGTGAG,-0.0633
17,AGCAAATG,-0.0782
18,TAGAGACA,-0.0793
19,GGCATTAC,0.364
20,ATCCTGTA,-0.0239
21,GAGATCTC,-0.168
22,CATGCAAG,-0.0447
23,CCGAGCTA,-0.139
24,CACGAGGA,0.102
25,AGATGAGC,0.0872

row,Sequence,PBM E-score
1,TATGTAGA,-0.0955
2,CTACAGAG,-0.0642
3,GGAATATA,0.055
4,GCACGCAA,-0.0758
5,CGCCTAGC,-0.0148
6,CGCCTACA,-0.0042
7,AGTAACAA,0.0362
8,AAAAGTGA,0.0395
9,GGAACGGA,0.136
10,GAGTCATA,-0.0359
11,ATATTTAC,0.162
12,ATGGTGGC,-0.321
13,GTGATTCA,-0.0153
14,ACGCTGGG,-0.265
15,GGTAGTTA,-0.048
16,CGGCGGGC,0.192
17,ATGGACGG,0.17
18,ACATATAC,-0.0472
19,AGGCAAGG,-0.0739
20,CGGCAGGC,0.136
21,ACTGGGAT,-0.0789
22,CGATGGAG,-0.0281
23,GGAGTCGA,-0.171
24,CGTACGAC,0.0388
25,CAGATCAC,-0.139

row,Sequence,PBM E-score
1,CGTAATTA,0.0434
2,AAACTATA,0.0206
3,AAACCTTA,0.0927
4,ACTACGTG,-0.192
5,CATCAAAG,0.0965
6,AGCTAAAG,-0.0869
7,GGCTGCGA,0.0765
8,CACCGTGG,-0.127
9,CAGTCCGC,0.00123
10,CAAATACC,-0.013
11,CCGCTGCC,0.0976
12,ATGCGAGA,-0.107
13,ACGACGCC,0.202
14,AACCCCCG,-0.211
15,AACCCCAG,-0.336
16,AACTGCGA,-0.173
17,ATTTTTCC,0.0398
18,CTGGAAGA,-0.0768
19,AGAAAGAA,0.00711
20,AGGTGCGA,-0.253
21,GCTGCTGA,0.189
22,CAAGCTGG,-0.152
23,ATTGCAAC,0.0596
24,CCAACGCC,0.128
25,AAACCGGG,-0.195

row,Sequence,PBM E-score
1,TAGATAGA,-0.0312
2,TCATTCGA,-0.0622
3,ATTTAGAC,0.0406
4,GCGCGTAA,0.188
5,TACTGATA,0.184
6,AGTCACAC,-0.0939
7,CTTTTTGC,0.0819
8,AGATGTAG,-0.207
9,AGATCGGC,0.104
10,AGGGATAG,-0.0778
11,CTAGTTCA,-0.0733
12,GCTCTCCA,-0.139
13,CTGACCGA,-0.182
14,AACTTTCA,0.114
15,GCAGCGTA,-0.105
16,AAAGGCCT,-0.00851
17,AAAGAACC,0.071
18,AATTATCA,0.224
19,AGGACACG,-0.163
20,AAGAAGCG,-0.0887
21,CGATTCAC,0.00707
22,ATACGCAA,0.109
23,ACTGGGGA,-0.305
24,AACTGGAC,-0.0374
25,AGTCTTGA,-0.154

row,Sequence,PBM E-score
1,ACGCCAAG,-0.223
2,CCGGGCTC,-0.23
3,AGGGTCGC,0.0437
4,GAACGAGC,0.173
5,AATAAGCA,0.121
6,AACCTCCA,-0.308
7,GACTGCGA,-0.104
8,CCCACCAC,-0.138
9,GATGGTGA,-0.131
10,GCGGGAAC,-0.111
11,ATGCCTAA,0.109
12,ACCGCCTG,-0.179
13,ATCTACCA,-0.00201
14,GAGGACTA,-0.174
15,GAGTGACA,-0.00365
16,CTAACGTC,0.0864
17,CGCTGGAG,-0.107
18,CACGAACG,0.115
19,ATGATGTA,0.0319
20,AGCACATA,0.0458
21,ATTTCCCC,-0.176
22,GATGCACA,-0.0773
23,GTTGTCGA,-0.101
24,ACTCGGGC,0.0689
25,CCGGAGAG,-0.196

row,Sequence,PBM E-score
1,CTAACCGC,-0.132
2,AGGTGGTG,-0.188
3,CTATAGAA,-0.00745
4,GATGATCC,-0.027
5,GGTATTTA,0.0735
6,AAAAGAAG,0.19
7,GAACTTGA,0.0834
8,ACGGACCG,0.0517
9,ATGCTTTC,-0.0285
10,TAGTCGGA,-0.00577
11,AACGAGAA,0.00842
12,AACGAAAA,0.0335
13,CTTACGTA,0.12
14,CTAACTCC,-0.32
15,TTATCGAA,0.133
16,ATCGTAGA,-0.178
17,TACCTACA,0.0258
18,AACTTTCC,-0.161
19,ACTAACCG,-0.00647
20,ATAAGAAA,0.143
21,ACCCGAGT,-0.0668
22,GATTAACA,0.266
